Test results: article PMC10668032
The list shows a part of the results. At the low end of the ranking the order means little.

Target: SIX1-Q177R homeodomain (UniProt Q15475)
Experiment: universal protein binding microarray
Settings: Universal all-10-mer PBM (8x60K, AMADID 030236), 300 nM GST-tagged protein, Alexa Fluor 488 anti-GST; buffer, salt, pH and temperature not stated; high values mean tight binding; most listed sequences are background and not binding sites; double strand, one strand shown

Sequence	binding signal [E-score]
ACAGGGGA	-0.0189
AGACAACG	-0.0164
CGGGGCCC	-0.0725
ATGGCGGC	-0.247
TGGCAGAA	-0.191
ATCCCTAG	0.154
CCGTCGCA	-0.197
CGAGTACC	0.168
ACTGGAGC	-0.0802
ACGCCTCG	0.104
AAACTGCG	-0.145
ACCTCAAC	0.27
AGTCAGCA	-0.153
GAAGTTGA	-0.112
ATTATCTA	-0.0424
GTGCCTAA	-0.148
ATGTGCAC	0.14
CCGACGTC	-0.203
CCCATATC	0.0889
AGAGCGAA	-0.091
ATTTTTAG	-0.123
ATGAGTAA	-0.0847
CGAGAGGA	-0.0149
ATGCGCAA	-0.195

Sequence	binding signal [E-score]
TGCATGAA	-0.0753
CCCCCTGC	0.156
AAGACGAG	0.00507
CGCTCTTA	-0.105
GAACATGC	-0.0849
CGTTGCTA	-0.157
TAACCCCA	0.217
CAGCTCAA	-0.351
TCCCGCAA	0.00702
GTATTCTA	0.174
TAAGGGTA	0.163
ACAATTAG	-0.0821
CCTTGGCC	-0.132
GACTGACA	0.096
CTAATTGC	-0.0208
ATCGAACC	0.0362
TATGGTAA	0.0115
GTGTCGTA	0.45
CCGAAAGG	0.00382
GAGACGTA	-0.0858
CTAAGAGC	0.0238
AGACGCTG	0.107
AGACTGAA	-0.241
ATTCACAG	-0.218

Sequence	binding signal [E-score]
GTCCCGCA	0.0344
AACGCAAG	-0.139
CGCGGCCC	-0.124
CGCGTAGC	0.0579
CCTTGTCA	0.0528
AGTAACCC	0.201
ATGACAGA	-0.199
ATATTAAA	0.085
CAATGGCA	-0.11
ATTTGCGG	-0.222
CCCCCACC	0.133
AGTTAAAT	-0.196
CAAATGGC	-0.169
ACTTCTAC	0.182
ATTGTAGC	-0.0606
CCTATCGC	-0.108
CACGAAGG	0.146
CACAATCG	0.0233
AAGTCTCG	-0.14
AAACTTAG	-0.128
ACCTAGTG	0.232
AGGGTCGG	0.172
ATATAGTG	0.265
AGACTAGC	-0.232

Sequence	binding signal [E-score]
CCACTCCC	-0.007
CATTTTAA	-0.141
CCTGGTCG	0.125
CACTCACA	0.228
CAATTGCA	-0.0728
GGAGGGCC	-0.149
CATGTGGC	-0.229
GTTCCCTA	-0.0631
GATTCGAC	-0.02
AGTGGTGC	0.245
CCGCCGCC	0.0455
CGGTATCA	0.312
AGTTTTCG	-0.0943
ACGCACGT	0.0456
ACAATGTG	-0.0929
AAGATGAT	-0.121
TAGCGGCA	-0.0473
AACGGCGC	-0.226
AACACTGC	0.375
GCGGTAAA	-0.108
ACACATTC	0.0929
ATCAGCAC	-0.0632
